In PubChem BioAssay AID485344 (National Center for Advancing Translational Sciences (NCATS), 2010):
Hit rate of the full screen: of about 340,000 compounds, about 6,900 (2%) were called active. Cut-off read from the data, not from the text of the source: active = inhibition above about 30%; inactive = below that, where a call was filed. The list shows a part of the results, in another mix than the full data. Where no call is shown, the source filed none.

target: D(2) dopamine receptor (Homo sapiens) (UniProt P14416); test: HTS Assay for Allosteric Antagonists of the Human D2 Dopamine Receptor: Primary Screen for Antagonists; settings: HEK293 TREx D2 cells, calcium flux, dopamine EC80; at 10 µM; stronger effect = higher value; note: 0% is about no effect
Method in brief: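 Read-out: kinetic calcium fluorescence (1 cycle/s) in inducible HEK293 T-REx D2 cells after an EC80 dopamine addition that followed 180 s compound preincubation. Loss of the dopamine response indicates antagonism.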

UniProt P14416, sequence (P14416 whole entry, looked up): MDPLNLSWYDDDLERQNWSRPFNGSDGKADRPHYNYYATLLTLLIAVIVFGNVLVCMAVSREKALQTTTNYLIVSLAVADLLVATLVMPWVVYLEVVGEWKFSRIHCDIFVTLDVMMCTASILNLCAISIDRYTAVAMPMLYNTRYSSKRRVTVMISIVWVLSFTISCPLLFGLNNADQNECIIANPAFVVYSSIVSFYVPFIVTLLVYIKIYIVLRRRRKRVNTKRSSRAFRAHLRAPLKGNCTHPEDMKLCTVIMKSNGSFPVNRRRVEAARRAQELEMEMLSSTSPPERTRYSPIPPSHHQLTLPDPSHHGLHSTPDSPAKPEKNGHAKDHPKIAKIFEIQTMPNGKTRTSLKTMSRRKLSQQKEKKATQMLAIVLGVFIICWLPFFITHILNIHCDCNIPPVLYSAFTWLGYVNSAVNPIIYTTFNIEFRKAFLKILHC

Going from `Cc1cccc(NC(=O)CN2C(=O)CCc3ccccc32)c1C` to `Cc1ccc(NC(=O)CN2C(=O)COc3ccc(S(=O)(=O)Nc4ccccc4)cc32)c(C)c1`, the inhibition rises from -3.45% to 3.51%.

Compared with `CCc1ccc(CNC(=O)C2CCN(c3nnc(-n4c(C)ccc4C)s3)CC2)cc1`, `CCCOc1ccc(CNC(=O)C2CCN(c3nn4c(=O)cc(C)nc4s3)CC2)cc1` is higher in inhibition: -8.3% for the first, 5.79% for the second.

Going from `COc1ccc(N2CCN(c3oc(/C=C/c4cccc(OC)c4)nc3C#N)CC2)cc1` to `O=C(c1cc2ccccc2oc1=O)N1CCN(c2ccc(F)cc2)CC1`, the inhibition rises from -1.83% to 5.7%.

First: CC(C)c1ccc(OCC(=O)Nc2cc(-c3nc4ncccc4o3)ccc2Cl)cc1
Second: Cc1ccc(OCC(=O)Nc2ccc(-c3nc4ccc(C)cc4o3)cc2)cc1
The inhibition of the first is lower: 4.2% for the first, 10.5% for the second.

Going from `O=[N+]([O-])c1ccc(C(c2sc3nc(-c4ccco4)nn3c2O)N2CCC3(CC2)OCCO3)cc1` (stereo not drawn) to `O=C(NCCc1ccccc1)c1cnc2sc(N3CCOCC3)nn2c1=O`, the inhibition falls from 1.96% to -2.59%.

First: COc1ccccc1CNC(=O)C(C)n1c(=O)cc(C(F)(F)F)c2c(C)nn(C)c21 (stereo not drawn)
Second: CCOC(=O)c1ccc(NC(=O)Cn2c(=O)cc(C(F)(F)F)c3c(C)nn(C)c32)cc1
The inhibition of the first is lower: -7.15% for the first, 5.45% for the second.

Compared with `CCOC(=O)c1[nH]c(C)c(C(=O)NCc2ccc(F)cc2)c1C`, `CCOC(=O)c1c(C)oc2nc(C)nc(NCCc3ccc(S(N)(=O)=O)cc3)c12` is higher in inhibition: 11.4% for the first, 13.7% for the second.

Compared with `COc1cc(CNCCSc2nnnn2C)ccc1OCc1c(F)cccc1Cl`, `COc1ccc(CNC(=O)c2ccc3nc(C(C)C)oc3c2)cc1OC` is lower in inhibition: 5.98% for the first, 0.0841% for the second.

Compared with `CCOc1ccccc1Nc1ccc2cc(S(=O)(=O)N3CCCCC3)ccc2n1`, `Cc1cc(C)c2c(CC(=O)Nc3ccc(S(=O)(=O)N4CCCCC4)cc3)coc2c1` is lower in inhibition: 13.8% for the first, -5.09% for the second.

Compared with `CCCSCCCNC(=O)CN1C(=O)COc2ccc(S(=O)(=O)N3CCCCCC3)cc21`, `O=C(CN1C(=O)CCc2cc(S(=O)(=O)N3CCOCC3)ccc21)NCc1ccc(Cl)cc1` is lower in inhibition: -3.34% for the first, -5.85% for the second.

First: Cc1cc(NC(=O)CN(c2cccc(C)c2C)S(=O)(=O)c2ccccc2)ccc1Br
Second: Cc1cccc(C(=O)Nc2ccc(S(=O)(=O)N(Cc3ccccc3)c3ccccc3)cc2)c1
The inhibition of the first is higher: 16.2% for the first, 5.98% for the second.

Going from `O=C(Nc1ccc(F)cc1F)C1CCCN1S(=O)(=O)c1cccc2nsnc12` (stereo not drawn) to `O=S(=O)(Nc1ccc(F)cc1F)c1ccc(-n2cccn2)cc1`, the inhibition falls from 6.8% to 0.976%.

First: Cc1cccc(C(=O)Nc2cccc(C(=O)OCc3cc(=O)n4nc(C5CC5)sc4n3)c2)c1
Second: Cc1nn2c(=O)cc(COC(=O)COc3ccc(F)cc3)nc2s1
The inhibition of the first is higher: 18.5% for the first, 14.2% for the second.

Going from `N#Cc1ccccc1NC(=O)C(=O)NCC(c1cccnc1)N1CCN(c2ccccc2)CC1` (stereo not drawn) to `COc1ccc(C(=O)NCCn2cc(SC(C)c3ccccc3)c3ccccc32)cc1OC` (stereo not drawn), the inhibition rises from -1.72% to 9.88%.

First: CCOc1ccc(C(=O)Nc2ccc3nc(SCC(=O)N4CCOCC4)sc3c2)cc1
Second: Cc1ccc(OCC(=O)Nc2ccc3nc(SCCOc4ccccc4)sc3c2)cc1
The inhibition of the first is lower: -14.5% for the first, -12.2% for the second.

Going from `CCOc1ccc(-c2nonc2NC(=O)c2oc3cc(Br)ccc3c2C)cc1` to `Cc1ccc(NC(=O)CSc2nnc(-c3ccc(Br)cc3)o2)c(C)c1`, the inhibition rises from 13% to 14.7%.

Going from `CC(NC(=O)c1cc2sccc2n1Cc1ccc(F)cc1)c1ccccc1` (stereo not drawn) to `O=C(NCc1cccs1)c1ccc(CSc2nc3ccncc3n2Cc2ccccc2)cc1`, the inhibition rises from -6.5% to 0.111%.

First: COc1ccc(C(=O)Nc2ccc(-c3cc(C(F)(F)F)nn3-c3ccccc3)cc2)cc1OC
Second: COc1ccc(-c2cc(C(=O)Nc3cccc(O)c3)on2)cc1OC
The inhibition of the first is lower: -21.1% for the first, 7.94% for the second.

First: CCc1cccc(C)c1NS(=O)(=O)c1ccc(-n2cccn2)cc1
Second: Cc1ccc(C(=O)Nc2ccc(S(=O)(=O)Nc3onc(C)c3C)cc2)cc1
The inhibition of the first is lower: -2.07% for the first, 5.52% for the second.

Going from `CC(=O)N1CCCc2cc(S(=O)(=O)NCc3ccc(OC(C)C)cc3)ccc21` to `Cc1cc(C)c2c(=O)cc(C(=O)NCc3ccc(S(N)(=O)=O)cc3)oc2c1`, the inhibition rises from -7.6% to -3.64%.

Compared with `COc1cc2ccccc2cc1C(=O)Nc1cccc(-c2nc3cc(C)ccc3o2)c1C`, `COc1cccc(NC(=O)c2oc3ccccc3c2NC(=O)c2cc3ccccc3o2)c1` is higher in inhibition: -2.84% for the first, 5.41% for the second.

Compared with `Cc1cc(C)cc(NC(=O)Cn2c(=O)n(Cc3ccco3)c(=O)c3oc4ccccc4c32)c1`, `COC(=O)c1cc2oc3ccccc3c2n1Cc1c(C)cc(C)cc1C` is higher in inhibition: 3.92% for the first, 21.6% for the second.

Going from `Cc1cccc(NC(=O)C2CCCN(S(=O)(=O)c3ccc(Br)s3)C2)c1` (stereo not drawn) to `CC1CCC(NC(=O)c2ccc(CS(=O)(=O)c3cccc(C(F)(F)F)c3)o2)CC1` (stereo not drawn), the inhibition falls from 8.26% to -25%.

Compared with `Cc1nc2cccnc2n1-c1cccc(C(=O)NCCc2ccc(S(N)(=O)=O)cc2)c1`, `COCCCNC(=O)c1ccc(C)c(-n2c(C)nc3cccnc32)c1` is higher in inhibition: -6.09% for the first, -3.73% for the second.

Going from `Cc1ccc(C2=NC(c3ccccc3)=Nc3ccc(Cl)cc3N2)cc1` to `CC(=O)c1ccc(NC(=O)Cn2c(=O)nc(-c3ccccc3)c3cc(Cl)ccc32)cc1`, the inhibition falls from 11.9% to -14.7%.

Compared with `COCCCNC(=O)CSc1nc(-c2ccc(OC)c(OC)c2)[nH]c1-c1ccc(F)cc1`, `CCC(C)NC(=O)CSc1nc2cc3c(cc2c(=O)n1Cc1ccc(C(=O)NCCc2ccc(OC)c(OC)c2)cc1)OCO3` (stereo not drawn) is higher in inhibition: -24% for the first, -18.6% for the second.

First: CCc1ccc(NC(=O)CCc2nnc3n(C)c(=O)c4sccc4n23)cc1
Second: COc1ccc(NC(=O)Cn2nnc3sc4c(c3c2=O)CCCC4)cc1
The inhibition of the first is higher: 26.7% for the first, -1.41% for the second.

First: Cc1cc(C)c(NC(=O)CSc2nc3ccncc3[nH]2)c(C)c1
Second: Cc1nc2ccn(Cc3cccnc3)c(=O)c2cc1C(=O)Nc1ccc(F)cc1F
The inhibition of the first is lower: -2.71% for the first, -0.398% for the second.

Compared with `CCOC(=O)Cn1c(=O)oc2cc(S(=O)(=O)N3CCC(C(=O)OCC)CC3)ccc21`, `CCOC(=O)C1CCCN(c2ncnc3c2nnn3C)C1` (stereo not drawn) is lower in inhibition: 2.09% for the first, -4.22% for the second.

First: COCCn1c(SCC(=O)c2c[nH]c3ccccc23)nc2cc(C(=O)NC(C)C)ccc2c1=O
Second: COc1cccc(C2=NS(=O)(=O)N(C)C(C(=O)Nc3ccccc3SC)=C2)c1
The inhibition of the first is higher: 8.07% for the first, -0.2% for the second.

First: CCOc1ccc(-c2nnc(SCC(=O)c3ccc(Br)cc3)n2-c2ccccc2)cc1
Second: CCOc1ccc(S(=O)(=O)NCCc2csc3nc(-c4ccc(F)cc4)nn23)cc1
The inhibition of the first is higher: -2.45% for the first, -8.38% for the second.

Going from `O=C(Nc1cccc(C(F)(F)F)c1)c1ccc2snnc2c1` to `Nc1c(-c2nc(-c3ccccc3)no2)nnn1CC(=O)Nc1cccc(F)c1`, the inhibition falls from 15.2% to -2.45%.

First: CCc1ccc(NC(=O)Nc2nnc(N(C)C3CCCCC3)s2)cc1
Second: Cc1ccc(NCc2cccn2-c2nnc(N3CCC(C(=O)NCCC(C)C)CC3)s2)cc1
The inhibition of the first is higher: 10.6% for the first, -0.602% for the second.

First: Cc1cccc(N2CCN(C(=O)C3CCN(c4ncnc5c4nc4n5CCCCC4)CC3)CC2)c1C
Second: Cc1cc(C)c(S(=O)(=O)Nc2ccc(-c3ccc(N4CCCCCC4)nn3)cc2)cc1C
The inhibition of the first is higher: 13.8% for the first, 12.1% for the second.

First: CCN(CC)c1ccc2cc(-c3nc(-c4ccccc4F)no3)c(=O)oc2c1
Second: COc1ccccc1CCNC(=O)Cc1c(C)c2cc3c(C)coc3cc2oc1=O
The inhibition of the first is higher: -7.48% for the first, -13.5% for the second.

Going from `Fc1ccc(CSc2nc(NCc3ccccc3)c3ccccc3n2)cc1` to `Cc1cccc(CSCc2ccc(C(=O)NCCc3ccccc3)o2)c1`, the inhibition rises from 5.89% to 24.6%.

First: COc1ccc(CNC(=O)Cn2c(=O)cc(C)c3c(C)nn(-c4cccc(Cl)c4C)c32)cc1
Second: CCc1ccc(-n2nc3cc(C)c(NC(=O)c4cc(OC)cc(OC)c4)cc3n2)cc1
The inhibition of the first is higher: -7.11% for the first, -8.71% for the second.

Going from `COc1cc(NC(=O)CNS(=O)(=O)c2cccs2)cc(OC)c1OC` to `CC(=O)c1ccc(NC(=O)CN(C)S(=O)(=O)c2cc3c(cc2Cl)NC(=O)CO3)cc1`, the inhibition rises from 10.7% to 11.2%.

Going from `Cc1ccc(C)c(Cn2c(=O)n(Cc3ccccc3)c(=O)c3c2c2cc(C)ccc2n3C)c1` to `CCOc1cc(-c2ccc(OC(=O)c3ccc(C)cc3)c(OC)c2)cc(=O)c2c(C)oc(C)c12`, the inhibition falls from -4.37% to -20.2%.

Compared with `CCCN(CCC)S(=O)(=O)c1ccc(C(=O)Nc2cccc(-c3nc4ccccc4[nH]3)c2)cc1`, `CCOC(=O)c1ccc(Nc2c(-c3cccc(O)c3)nc3nc[nH]n23)cc1` is higher in inhibition: 5.15% for the first, 19.8% for the second.

First: N#Cc1c(-n2ncnc2-c2ccccc2C(F)(F)F)sc2c1CCCCC2
Second: Cc1ccc(CNC(=O)c2c(C)oc3nc(C)nc(N4CCOCC4)c23)cc1
The inhibition of the first is higher: 12.8% for the first, 1.14% for the second.

In the case of `O=C(O)c1cccnc1Nc1cccc(C(F)(F)F)c1`, the inhibition is reported as active: 55.6%.
With `CCOC1(OCC)C(c2ccc(Cl)cc2)C(C#N)(C#N)C1(OCC)OCC` (stereo not drawn) the inhibition was active: 38.5%.
`COc1cc2c(c(O)c1OC)C(=O)C(OC)CCC2` (stereo not drawn) was tested, and the inhibition was active: 32%.
`Cc1cc(C)nc(N2CCCC(C(=O)Nc3nnc(C(C)(C)C)s3)C2)n1` (stereo not drawn) was tested, and the inhibition was active: 47.9%.
In the case of `Cc1ccc(CC(=O)NCc2cccnc2)cc1`, the inhibition is reported as active: 67.4%.
In the case of `C=CCNC(=O)CC(=O)N/N=C/c1ccc(C(=O)OC)cc1`, the inhibition is reported as active: 33.4%.
For `Oc1ccc2ccccc2c1CNn1cnnc1`, the inhibition was active: 32.6%.
In the case of `COc1ccccc1OCCC(=O)OCC(=O)Nc1ccc(Br)cc1F`, the inhibition is reported as active: 41.1%.
`COc1cc(NC(=O)NCCN2CCN(c3ccccc3)CC2)cc(OC)c1OC` was tested, and the inhibition was active: 76%.
In the case of `Cn1c(N)c(C(=O)NCc2ccccc2Cl)sc1=S`, the inhibition is reported as active: 52.9%.
In the case of `CC(C)(Oc1ccc(Cl)cc1)C(=O)NC1CCN(Cc2ccccc2)CC1`, the inhibition is reported as active: 71.8%.
`COc1ccc(CC(=O)Nc2ccc(S(=O)(=O)NCC3CCCO3)cc2)cc1` (stereo not drawn) was tested, and the inhibition was active: 31.8%.
For `CSCc1ccc(C(=O)Nc2cc(C)cc(C)c2)cc1`, the inhibition was active: 30.3%.
With `COc1cccc(-c2nn(C)c3sc(C(=O)NCc4ccco4)cc23)c1` the inhibition was active: 36.2%.
For `CC(=O)C1=C(C)NC2=C(C(=O)CC(C)(C)C2)C1C` (stereo not drawn), the inhibition was active: 34%.
For `c1ccc(Cn2c[n+](Cc3ccccc3)cn2)cc1`, the inhibition was active: 43.1%.
